The list shows a part of the results. The list includes weakly bound sequences.
Target: T1, MBP-FoxP3dN (UniProt Q99JB6)
T1 sequence: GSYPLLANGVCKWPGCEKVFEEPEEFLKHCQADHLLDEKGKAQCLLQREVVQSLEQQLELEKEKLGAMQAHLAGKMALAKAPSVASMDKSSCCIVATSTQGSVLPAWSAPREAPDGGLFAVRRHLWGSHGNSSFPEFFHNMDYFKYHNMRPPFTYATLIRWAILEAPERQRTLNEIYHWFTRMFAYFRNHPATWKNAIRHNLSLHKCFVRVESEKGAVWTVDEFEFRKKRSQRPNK
Assay: PD-seq (MBP pull-down with sequencing)
Settings: 20 mM Tris-HCl pH 7.5, 100 mM NaCl, 1.5 mM MgCl2, 0.4 uM protein, 0.1 uM dsDNA library, 30 min, room temperature, amylose pull-down; high values mean tight binding; double strand, one strand shown

Sequence | binding signal (RPM ratio (pull-down/input))
GATGATTGTTCTCCCAGCTGATGAATTCACGGGCTCGAGTAAACAAATTTTCCTAATCTTTCTGTTCAAGCGCCATCTAC | 0.213
GATGATTGTTCTCCCAGCTGATGAATTCAATACGTCGAGTAAACAAATTTTCCTAATCTTTCTGTTCAAGCGCCATCTAC | 0.445
GATGATTGTTCTCCCAGCTGATGAATTCTGACCGTCGAGTAAACAAATTTTCCTAATCTTTCTGTTCAAGCGCCATCTAC | 0.388
GATGATTGTTCTCCCAGCTGATGAATTCTCCGACTCGAGTAAACAAATTTTCCTAATCTTTCTGTTCAAGCGCCATCTAC | 0.218
GATGATTGTTCTCCCAGCTGATGAATTTAACTCTTCGAGTAAACAAATTTTCCTAATCTTTCTGTTCAAGCGCCATCTAC | 0.383
GATGATTGTTCTCCCAGCTGATGAATTGGGCATTTCGAGTAAACAAATTTTCCTAATCTTTCTGTTCAAGCGCCATCTAC | 5.5
GATGATTGTTCTCCCAGCTGATGAATTTATGGCCTCGAGTAAACAAATTTTCCTAATCTTTCTGTTCAAGCGCCATCTAC | 1.29
GATGATTGTTCTCCCAGCTGATGAATTAATACGCTCGAGTAAACAAATTTTCCTAATCTTTCTGTTCAAGCGCCATCTAC | 0.487
GATGATTGTTCTCCCAGCTGATGAATTCGAGTCGTCGAGTAAACAAATTTTCCTAATCTTTCTGTTCAAGCGCCATCTAC | 0.55
GATGATTGTTCTCCCAGCTGATGAATTTGCGTCCTCGAGTAAACAAATTTTCCTAATCTTTCTGTTCAAGCGCCATCTAC | 2.49
GATGATTGTTCTCCCAGCTGATGAATTCCGCCATTCGAGTAAACAAATTTTCCTAATCTTTCTGTTCAAGCGCCATCTAC | 5.49
GATGATTGTTCTCCCAGCTGATGAATTGCTCCTATCGAGTAAACAAATTTTCCTAATCTTTCTGTTCAAGCGCCATCTAC | 0.548
GATGATTGTTCTCCCAGCTGATGAATTCGGCCTATCGAGTAAACAAATTTTCCTAATCTTTCTGTTCAAGCGCCATCTAC | 1.74
GATGATTGTTCTCCCAGCTGATGAATTCAGCAAATCGAGTAAACAAATTTTCCTAATCTTTCTGTTCAAGCGCCATCTAC | 0.539
GATGATTGTTCTCCCAGCTGATGAATTGCTGGGTTCGAGTAAACAAATTTTCCTAATCTTTCTGTTCAAGCGCCATCTAC | 0.61
GATGATTGTTCTCCCAGCTGATGAATTATTTATCTCGAGTAAACAAATTTTCCTAATCTTTCTGTTCAAGCGCCATCTAC | 2.19
GATGATTGTTCTCCCAGCTGATGAATTGGGAGTGTCGAGTAAACAAATTTTCCTAATCTTTCTGTTCAAGCGCCATCTAC | 0.883
GATGATTGTTCTCCCAGCTGATGAATTTCGTCATTCGAGTAAACAAATTTTCCTAATCTTTCTGTTCAAGCGCCATCTAC | 1.56
GATGATTGTTCTCCCAGCTGATGAATTGGTGATCTCGAGTAAACAAATTTTCCTAATCTTTCTGTTCAAGCGCCATCTAC | 0.824
GATGATTGTTCTCCCAGCTGATGAATTGATAAACTCGAGTAAACAAATTTTCCTAATCTTTCTGTTCAAGCGCCATCTAC | 0.537

Sequence | binding signal (RPM ratio (pull-down/input))
GATGATTGTTCTCCCAGCTGATGAATTCTGCGGGTCGAGTAAACAAATTTTCCTAATCTTTCTGTTCAAGCGCCATCTAC | 0.928
GATGATTGTTCTCCCAGCTGATGAATTTTATAGATCGAGTAAACAAATTTTCCTAATCTTTCTGTTCAAGCGCCATCTAC | 0.401
GATGATTGTTCTCCCAGCTGATGAATTAGTCCGTTCGAGTAAACAAATTTTCCTAATCTTTCTGTTCAAGCGCCATCTAC | 0.434
GATGATTGTTCTCCCAGCTGATGAATTTCCCAGATCGAGTAAACAAATTTTCCTAATCTTTCTGTTCAAGCGCCATCTAC | 0.152
GATGATTGTTCTCCCAGCTGATGAATTTCCCTCTTCGAGTAAACAAATTTTCCTAATCTTTCTGTTCAAGCGCCATCTAC | 0.262
GATGATTGTTCTCCCAGCTGATGAATTAACACCTTCGAGTAAACAAATTTTCCTAATCTTTCTGTTCAAGCGCCATCTAC | 0.408
GATGATTGTTCTCCCAGCTGATGAATTGCTCATTTCGAGTAAACAAATTTTCCTAATCTTTCTGTTCAAGCGCCATCTAC | 0.686
GATGATTGTTCTCCCAGCTGATGAATTTGAGACTTCGAGTAAACAAATTTTCCTAATCTTTCTGTTCAAGCGCCATCTAC | 0.562
GATGATTGTTCTCCCAGCTGATGAATTTCAATCCTCGAGTAAACAAATTTTCCTAATCTTTCTGTTCAAGCGCCATCTAC | 0.37
GATGATTGTTCTCCCAGCTGATGAATTTTAGTGTTCGAGTAAACAAATTTTCCTAATCTTTCTGTTCAAGCGCCATCTAC | 1.21
GATGATTGTTCTCCCAGCTGATGAATTAGATCCGTCGAGTAAACAAATTTTCCTAATCTTTCTGTTCAAGCGCCATCTAC | 0.24
GATGATTGTTCTCCCAGCTGATGAATTGCAGAATTCGAGTAAACAAATTTTCCTAATCTTTCTGTTCAAGCGCCATCTAC | 1
GATGATTGTTCTCCCAGCTGATGAATTTAGTTTTTCGAGTAAACAAATTTTCCTAATCTTTCTGTTCAAGCGCCATCTAC | 2.8
GATGATTGTTCTCCCAGCTGATGAATTTAATGAATCGAGTAAACAAATTTTCCTAATCTTTCTGTTCAAGCGCCATCTAC | 0.272
GATGATTGTTCTCCCAGCTGATGAATTATTAAACTCGAGTAAACAAATTTTCCTAATCTTTCTGTTCAAGCGCCATCTAC | 0.32
GATGATTGTTCTCCCAGCTGATGAATTACGGACGTCGAGTAAACAAATTTTCCTAATCTTTCTGTTCAAGCGCCATCTAC | 0.325
GATGATTGTTCTCCCAGCTGATGAATTATTACCTTCGAGTAAACAAATTTTCCTAATCTTTCTGTTCAAGCGCCATCTAC | 0.397
GATGATTGTTCTCCCAGCTGATGAATTCTAGCATTCGAGTAAACAAATTTTCCTAATCTTTCTGTTCAAGCGCCATCTAC | 5.17
GATGATTGTTCTCCCAGCTGATGAATTGACTAATTCGAGTAAACAAATTTTCCTAATCTTTCTGTTCAAGCGCCATCTAC | 0.356
GATGATTGTTCTCCCAGCTGATGAATTCCACTTGTCGAGTAAACAAATTTTCCTAATCTTTCTGTTCAAGCGCCATCTAC | 0.571

From publication PMC12820563
